From PubChem BioAssay AID1468 (National Center for Advancing Translational Sciences (NCATS), 2008)
Hit rate of the full screen: of about 280,000 compounds, about 1,100 (0.39%) were called active. The inconclusive results got no clear call from the source; some entries with a clear call stand among them for comparison. Calls come from the whole dose curve; as a rule, active = well fitted inhibition curve with a large enough effect; inconclusive = small, poorly fitted or top-dose-only effect, or effect the other way; inactive = flat fitted curve, though single readings scatter. No potency is given beside an inconclusive call; the fits are too rough.

Biological target: Microtubule-associated protein tau (Homo sapiens) (UniProt P10636)
UniProt P10636, sequence (P10636 whole entry, looked up): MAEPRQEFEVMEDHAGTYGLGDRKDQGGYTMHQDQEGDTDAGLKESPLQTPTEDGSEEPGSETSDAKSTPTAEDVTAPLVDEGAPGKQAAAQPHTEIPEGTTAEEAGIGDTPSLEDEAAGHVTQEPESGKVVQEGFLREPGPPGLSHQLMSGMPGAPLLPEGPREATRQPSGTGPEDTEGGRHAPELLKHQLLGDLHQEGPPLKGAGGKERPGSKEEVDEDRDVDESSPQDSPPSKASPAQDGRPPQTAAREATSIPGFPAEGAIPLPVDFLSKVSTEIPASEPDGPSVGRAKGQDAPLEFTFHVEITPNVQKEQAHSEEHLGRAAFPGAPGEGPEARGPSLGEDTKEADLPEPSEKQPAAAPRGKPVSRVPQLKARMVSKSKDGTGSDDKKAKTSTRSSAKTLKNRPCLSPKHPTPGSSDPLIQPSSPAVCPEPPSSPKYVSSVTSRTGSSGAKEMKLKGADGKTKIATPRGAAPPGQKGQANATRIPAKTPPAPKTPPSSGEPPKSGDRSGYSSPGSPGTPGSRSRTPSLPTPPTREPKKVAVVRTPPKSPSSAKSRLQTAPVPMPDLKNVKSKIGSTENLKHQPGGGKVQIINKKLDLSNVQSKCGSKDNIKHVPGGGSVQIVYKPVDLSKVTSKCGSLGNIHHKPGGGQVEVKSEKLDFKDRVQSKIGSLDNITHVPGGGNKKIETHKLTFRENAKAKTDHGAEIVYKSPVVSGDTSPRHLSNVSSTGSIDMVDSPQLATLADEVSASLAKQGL
Experiment: qHTS for Inhibitors of Tau Fibril Formation, Fluorescence Polarization; note: nearly all actives have a fitted effect of over 55% in size
Conditions: K18 P301L tau heparin fibrillization, Alexa594 FP, 6 h; series mostly up to 57.7 µM; activity, negative = inhibition: at the top concentration
Method in brief: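 Read-out: fluorescence polarization of Alexa 594-labeled tau (0.24 uM), 555 nm excitation, 632 nm emission. Mixtures held 15 uM unlabeled K18 P301L, compound and 20 uM heparin, pH 7 acetate buffer, incubated 6 hr at 37 C.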
% is set by controls: 0 for no effect and ±100 for the full control effect; potency is the fitted concentration of half-maximal effect; tags give direction and shape of the fitted curve.

SMILES | activity, negative = inhibition | Potency
COc1ccc(-c2cc(C(F)F)n3ncc(C(=O)Nc4ccc(C(=O)N5CCOCC5)cc4)c3n2)cc1 | inactive: 0.536% | –
COc1ccccc1NC(=S)N(Cc1ccco1)Cc1cc2ccc(C)c(C)c2[nH]c1=O | – | inconclusive [inhibitor, full curve, poor fit]
Cc1cccc(NC(=O)CSc2nc(=O)n(Cc3ccccn3)c3c2CCC3)c1C | inactive: -8.52% | –
O=C(CSc1nc2cc(Cl)ccc2c(=O)n1Cc1ccco1)Nc1ccc(S(=O)(=O)N2CCOCC2)cc1 | – | inconclusive [inhibitor, partial curve]
Cc1ccc(Cl)cc1NC(=O)CSc1nc2c(c(=O)[nH]1)CN(Cc1ccccc1)CC2 | – | inconclusive [activator, partial curve]
COc1ccc(C(=O)/C=C/C(=O)N(CC(=O)NC2CCCCC2)Cc2ccccc2)c(O)c1 | inactive: -10.2% | –
COc1ccc(NC(=S)N2CCN(c3ccccn3)CC2)cc1OC | inactive: -10.8% | –
CCOC(=O)c1ccc(NC(=O)CCc2c(C)nc3c(-c4ccc(F)cc4)c(C)nn3c2C)cc1 | – | inconclusive [inhibitor, partial curve, poor fit]
Cc1[nH]n(-c2ccccc2)c(=S)c1C=Nc1ccc([N+](=O)[O-])cc1 | – | inconclusive [inhibitor, single point]
Cc1ccccc1C(=O)Nc1ccc(C(=O)OCc2cc(=O)n3nc(C(C)C)sc3n2)cc1 | inactive: 3.14% | –
O=C(NC(=S)NNC(=O)c1ccccc1[N+](=O)[O-])c1ccccc1 | inactive: -4.54% | –
COc1ccccc1NC(=O)c1cnc(Nc2ccccc2OC)c2ccccc12 | inactive: -5.52% | –
O=C(COC(=O)c1cnccn1)c1ccc([N+](=O)[O-])cc1 | – | inconclusive [inhibitor, partial curve]
O=C(Nc1ccncc1)c1ccc2c(c1)OCCO2 | – | inconclusive [inhibitor, single point]
O=C(Nc1ccc(Cl)c(-c2nc3ccccc3[nH]2)c1)c1ccc2c(c1)OCO2 | – | active: 17.8 µM
CN=C(Nc1cc(Cl)ccc1Cl)SC1CC(=O)N(c2ccc(C(=O)OC)cc2)C1=O (stereo unspecified) | – | active: 28.2 µM
COCCn1c(=O)[nH]c2cc(C(=O)NCCN3CCN(c4ccccc4F)CC3)ccc2c1=O | – | inconclusive [inhibitor, single point]
O=[N+]([O-])c1cc(/C=N\Nc2nc(-c3ccccc3)cs2)ccc1O | – | inconclusive [inhibitor, single point]
Cc1occc1-c1nnc(SCC(=O)N(C)C)o1 | – | inconclusive [inhibitor, single point]
Cc1cccc(C(=O)Nc2ccc3oc(-c4ccncc4)nc3c2)c1 | – | inconclusive [inhibitor, partial curve, poor fit]
O=C(COC(=O)C1CCN(S(=O)(=O)c2ccc3c(c2)OCCO3)CC1)Nc1ccc(C(F)(F)F)cc1 | – | inconclusive [inhibitor, full curve, poor fit]
CCOC(=O)C1CCCN(S(=O)(=O)c2ccc3[nH]c(=O)oc3c2)C1 (stereo unspecified) | inactive: 0.573% | –

SMILES | activity, negative = inhibition | Potency
COc1ccc(-c2cc(C(F)(F)F)c(C#N)c(SCC(=O)Nc3ccccc3F)n2)cc1 | – | inconclusive [inhibitor, full curve]
CCOc1ccc(NC(=S)NC(C)C(c2ccccc2)N2CCN(C)CC2)cc1 (stereo unspecified) | – | inconclusive [inhibitor, single point]
O=C(Nc1cccc(Cl)c1)Nc1csc([N+](=O)[O-])c1 | – | inconclusive [inhibitor, single point]
O=C1Nc2ccccc2/C1=N\N=C\C1=C(N2CCOCC2)C(=C\c2ccccc2)/CC1 | – | inconclusive [inhibitor, single point]
COc1cc(C2(O)CCCCC2C)cc(OC)c1OC (stereo unspecified) | – | inconclusive [activator, partial curve, poor fit]
O=S(=O)(Cc1ccccc1)N=Nc1c(O)[nH]c2ccc(Br)cc12 | inactive: -15.1% | –
O=C(Nc1ccc(Cl)cc1)N(Cc1nc2ccccc2c(=O)[nH]1)Cc1cccs1 | – | inconclusive [inhibitor, partial curve, poor fit]
O=C1c2ccccc2C(O)(Cc2ccccc2)N1c1ccc2c(c1)OCO2 (stereo unspecified) | – | inconclusive [activator, single point]
O=C(c1ccccc1)c1ccc2nc(Nc3cc(Cl)ccc3O)c3nncn3c2c1 | – | inconclusive [activator, full curve, poor fit]
COc1ccc(S(=O)(=O)NNC(=O)c2cc3c4ccccc4n(C)c3s2)cc1 | – | inconclusive [inhibitor, single point]
COc1ccc(C(=O)NC(=S)Nc2ccc3c(c2)Cc2ccccc2-3)cc1 | inactive: -14.4% | –
COc1ccc(Nc2cc(C)c3cc(NC(=O)c4cc(OC)cc(OC)c4)ccc3n2)cc1 | – | inconclusive [activator, partial curve]
CCOC(=O)C1=NN(C(=O)Cc2ccccc2)C(O)(c2ccc(Cl)cc2)C1 (stereo unspecified) | – | inconclusive [inhibitor, full curve, poor fit]
O=C(Nc1ccccc1Oc1ccccc1)C1CCCC1 | inactive: -13.9% | –
CO/N=C(/C)CCS(=O)(=O)c1ccccc1 | – | inconclusive [activator, partial curve, poor fit]
CCn1cc(C(=O)NCCCN2CCC(C)CC2)c2cc(OC)c(OC)cc2c1=O | – | inconclusive [inhibitor, single point]
O=C(Nc1ccc(F)cc1)Nc1ccccc1F | inactive: 1.95% | –
O=C(CCN1C(=O)/C(=C/c2ccccc2)SC1=S)NNC(=O)c1ccncc1 | – | inconclusive [inhibitor, single point]
O=c1cc(-c2ccc(O)cc2O)oc2ccccc12 | inactive: 5.09% | –
COc1ccccc1NC(CC(=O)c1ccccc1)C(=O)OCC(=O)c1ccc(C)cc1 (stereo unspecified) | – | inconclusive [activator, single point]
COc1ccc(C(=O)/C=C/C(=O)N(CC(=O)NC2CCCCC2)CC2CCCO2)c(O)c1 (stereo unspecified) | – | inconclusive [activator, single point]
COc1ccc(Nc2cc(C(=O)NCc3ccccc3)c3ccccc3n2)c(OC)c1 | – | inconclusive [activator, full curve, poor fit]

SMILES | activity, negative = inhibition | Potency
OC[C@H]1O[C@@H](n2cnc3c(NC4CCCC4)ncnc32)[C@H](O)[C@@H]1O | – | inactive
CCOc1ccc(-c2cn3c(n2)sc2cc(C(=O)NC4CCCc5ccccc54)ccc23)cc1 (stereo unspecified) | – | inconclusive [inhibitor, partial curve]
Cc1ccc(NC(=O)CC(C)S(=O)(=O)c2ccc3c(c2)NC(=O)CO3)cc1C (stereo unspecified) | inactive: -5.65% | –
COc1ccccc1Sc1nc(-c2ccccn2)ncc1OC | inactive: -2.24% | –
Cc1cc(-c2ccc(S(=O)(=O)Nc3ccc(Br)c(C)c3)s2)on1 | – | inconclusive [inhibitor, partial curve]
COc1ccc(Cl)cc1NC(=O)Cn1cc2c(n1)CCC(C)C2 (stereo unspecified) | inactive: -4.47% | –
BrC(=C\c1ccccc1)/C=N/N1CCN(c2ccccc2)CC1 | – | inconclusive [inhibitor, single point]
O=C(O)/C=C\C(=O)Nc1ccc(N2CCN(c3ccc(Cl)cc3)CC2)cc1 | – | inconclusive [inhibitor, partial curve, poor fit]
CC(=O)Nc1ccc(C)cc1-c1nc2ccccc2n(Cc2cccc(Br)c2)c1=O | inactive: -0.355% | –
Cc1cccc(N=C2NN=C(c3c[nH]c4ccccc34)CS2)c1 | – | inconclusive [inhibitor, single point]
FC(F)(F)Sc1ccc(NC(=S)NCc2ccccc2)cc1 | – | inconclusive [inhibitor, partial curve]
CN(C)c1cccc(C(=O)OCC(=O)Nc2ccccc2-c2ccccc2)c1 | – | inconclusive [activator, full curve, poor fit]
COc1cccc(-n2ccnc2SCC(=O)Nc2nc3ccc(C)cc3s2)c1 | – | inconclusive [inhibitor, partial curve]
Cc1ccc(O)c(NC(=O)C2CC(c3c(F)cccc3Cl)=NO2)c1 (stereo unspecified) | – | inconclusive [activator, single point]
CCCCNC(=O)CSc1nc(-c2ccc(OC)cc2)cc(C(F)(F)F)n1 | – | inconclusive [inhibitor, single point]
Nc1c(S(=O)(=O)c2ccccc2)c2nc3ccccc3nc2n1/N=C/c1cccc(O)c1 | – | inconclusive [inhibitor, partial curve]
COc1ccc2c(c1)OCC1=C2CCC2(C)C(=O)CC=C12 (stereo unspecified) | – | inconclusive [inhibitor, single point]
CCOc1ccc(C(=O)c2nc3c(n2O)CCCC3)cc1 | – | inconclusive [inhibitor, single point]
CCCOC(=O)c1ccc(NC(=O)CSC2=Nc3ccccc3C3CC=NN23)cc1 (stereo unspecified) | – | inconclusive [inhibitor, partial curve]
COc1ccc(Oc2ccc(C(F)(F)F)cc2NC(=O)c2ccc(C)cc2)cc1 | – | inconclusive [inhibitor, partial curve]
COc1cc(C(c2c(C)[nH][nH]c2=O)c2c(C)[nH][nH]c2=O)ccc1OS(=O)(=O)c1ccccc1 | inactive: 6.31% | –
Cc1nc(NC(=O)c2ccc(Cl)cc2)sc1Cc1ccc2c(c1)OCO2 | – | inconclusive [inhibitor, single point]
